{
  "source": "the supplement of paper PMC4604168 (melanoma cell lines)",
  "note": "Some of the results follow. Most values come without repeats; read them as rough.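 Also: cells treated in 1,536-well plates, then fixed and DAPI-stained, with nuclei counted from automated high-throughput microscope images.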",
  "data": [
    {"system": "IPC-298", "test": "cell count relative to DMSO control; melanoma cells; higher = more viable cells", "conditions": "library dose: standard library concentration; 72 h", "units": {"cell count": "%"}, "values": [
      {"smiles": "Cn1c(Nc2ccc(C(F)(F)F)cc2)nc2cc(Oc3ccnc(-c4ncc(C(F)(F)F)[nH]4)c3)ccc21", "note": "+ O=C(CCCCCCC(=O)Nc1ccccc1)NO [vorinostat] (first compound 0.4 µM, partner dose 0.4 µM)", "cell count": 51.9},
      {"smiles": "COCC[n+]1c2c(n(Cc3cnccn3)c1C)C(=O)c1ccccc1C2=O", "note": "+ COc1cc2ncnc(Nc3ccc(Oc4ccccc4)cc3)c2cc1OC [SrcI1] (first compound 0.002 µM, partner dose 10 µM)", "cell count": 36},
      {"smiles": "COCC[n+]1c2c(n(Cc3cnccn3)c1C)C(=O)c1ccccc1C2=O", "note": "+ Cc1ccc(NC(=O)c2cccc(N(C)C)c2)cc1NC(=O)c1ccc(O)cc1 [ZM336372] (first compound 0.002 µM, partner dose 10 µM)", "cell count": 63.2},
      {"smiles": "COCC[n+]1c2c(n(Cc3cnccn3)c1C)C(=O)c1ccccc1C2=O", "note": "+ CN(NC(=O)CC(=O)NN(C)C(=S)c1ccccc1)C(=S)c1ccccc1 [STA4783] (first compound 0.002 µM, partner dose 0.03 µM)", "cell count": 33.6},
      {"smiles": "C#Cc1cccc(Nc2ncnc3cc(OCCOC)c(OCCOC)cc23)c1", "note": "[erlotinib] + Nc1cccc2c1CN(C1CCC(=O)NC1=O)C2=O [lenalidomide] (first compound 4 µM, partner dose 5 µM)", "cell count": 74.6},
      {"smiles": "Nc1cccc2c1CN(C1CCC(=O)NC1=O)C2=O", "note": "(stereo unspecified) [lenalidomide] + COC(=O)c1sccc1S(=O)(=O)Nc1ccc(Nc2ccccc2)cc1OC [GSK0660] (first compound 5 µM, partner dose 5 µM)", "cell count": 102}
    ]}
  ]
}
